Experiment [1] has as its target T1, truncated monomeric His-tagged human FcRn (human, UniProt P55899 fragment; P61769 fragment).
T1 construct: extracellular domain; Made in a Baculovirus system; also called hFcRn; soluble hFcRn; not shown: His tag
Put plainly: SPR, hFcRn over immobilized HSA variants, pH 6.0. Background: SPR reads the build-up and loss of mass on a sensor chip optically.

In experiment [2] the target is T1, truncated monomeric His-tagged human …. Description: SPR (BIAcore 3000), hFcRn injected over immobilized (~500 RU) GST-fused HSA variant, pH 6.0, 1:1 model.

T1 sequence (P55899 24-297 limits assumed, chain 1 of 2): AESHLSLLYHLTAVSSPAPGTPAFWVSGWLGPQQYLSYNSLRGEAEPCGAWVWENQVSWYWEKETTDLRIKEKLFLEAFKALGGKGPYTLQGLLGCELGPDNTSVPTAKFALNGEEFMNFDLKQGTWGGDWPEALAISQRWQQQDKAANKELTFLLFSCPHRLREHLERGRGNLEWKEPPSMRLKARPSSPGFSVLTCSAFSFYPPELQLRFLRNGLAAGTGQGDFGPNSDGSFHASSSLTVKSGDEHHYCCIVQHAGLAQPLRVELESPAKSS
T1 sequence (P61769 21-119 limits assumed, chain 2 of 2, further chain): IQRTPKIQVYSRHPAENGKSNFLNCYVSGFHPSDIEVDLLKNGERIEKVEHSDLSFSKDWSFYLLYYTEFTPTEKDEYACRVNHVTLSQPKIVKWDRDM

B1: HSA E505Q/T527M/V547A/K573P-GST (other)
chain: DAHKSEVAHRFKDLGEENFKALVLIAFAQYLQQCPFEDHVKLVNEVTEFAKTCVADESAENCDKSLHTLFGDKLCTVATLRETYGEMADCCAKQEPERNECFLQHKDDNPNLPRLVRPEVDVMCTAFHDNEETFLKKYLYEIARRHPYFYAPELLFFAKRYKAAFTECCQAADKAACLLPKLDELR[about 200 residues not written out]NLIKQNCELFEQLGEYKFQNALLVRYTKKVPQVSTPTLVEVSRNLGKVGSKCCKHPEAKRMPCAEDYLSVVLNQLCVLHEKTPVSDRVTKCCTESLVNRRPCFSALEVDETYVPKEFNAQTFTFHADICTLSEKERQIKKQMALVELVKHKPKATKEQLKAAMDDFAAFVEKCCKADDKETCFAEEGPKLVAASQAALGL
For orientation: Kd means the constant that tells how readily two partners part at equilibrium. A word on the koff: it is the first-order rate constant of dissociation. Low values mean a long-lived complex, high ones a short-lived complex. Broadly, the kon is the second-order rate constant of association. High values mean faster complex formation, low ones slower complex formation. Regarding B1, the “fold improved KD relative to WT HSA” value in experiment [1] was over 1400 fold. In experiment [2], this molecule returned a Kd of 0.1 nM, a koff of 4e-05 s⁻¹ and a kon of 250000 M⁻¹ s⁻¹.

For the origin of these results see patent US20190135895A1 (published 2019).
